# Laboratory results taken from the supplement of paper PMC8728848.
# The other results are listed elsewhere or left out.
# B1: Epa13 (Candida glabrata) (protein)
# chain: MGSSHHHHHHSSGLVPRGSHMASDSSENGYAHGCSPSIRAKLKPGLSMEIYSYALRPTDDHCWDSAYLDPMFPRTGYLTHKLLGKAEGIIGPLNFLAKNPACIPAVSTLPLAFHFPKPFTITNFTMLLYGYLSPKKTGKYTFKLLADDLLLMNFGADNAFDCCSHDATKDNIGEYVAYSVWPGVNKNVTVYLESGIYYPLRLFFNNRDAIAQLDFAYYFNDSPIRQTDFSGMFFSIPDSVKCPANI
# Tests used:
# Test in all cases: glycan array binding signal (z-score within array); higher = stronger binding
# Details in all cases: glycan notation: IUPAC condensed, linker removed
# [1] = biological target: Gal(b1-4)GlcNAc(b1-3)Gal(b1-4)GlcNAc(b1-3)Gal(b1-4)GlcNAc(b1-3)Gal(b1-4)GlcNAc(b1-2)Man(a1-3)[Gal(b1-4)GlcNAc(b1-3)Gal(b1-4)GlcNAc(b1-3)Gal(b1-4)GlcNAc(b1-3)Gal(b1-4)GlcNAc(b1-2)Man(a1-6)]Man(b1-4)GlcNAc(b1-4)[Fuc(a1-6)]GlcNAc
# Method in brief: (§1)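 Glycan array binding is given as a within-array Z-score, which can be read as non-binding when negative. The arrays, 3228 of them, came from the Consortium for Functional Glycomics database and were retained only where the protein sequence was available. Z-scores were averaged across arrays of the same protein sequence at different concentrations or buffers and across linkers.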
# [2] = biological target: Gal(b1-4)GlcNAc(b1-3)Gal(b1-4)GlcNAc(b1-3)Gal(b1-4)GlcNAc(b1-3)Gal(b1-4)GlcNAc(b1-2)[Gal(b1-4)GlcNAc(b1-3)Gal(b1-4)GlcNAc(b1-3)Gal(b1-4)GlcNAc(b1-3)Gal(b1-4)GlcNAc(b1-6)]Man(a1-6)[Gal(b1-4)GlcNAc(b1-3)Gal(b1-4)GlcNAc(b1-3)Gal(b1-4)GlcNAc(b1-3)Gal(b1-4)GlcNAc(b1-2)Man(a1-3)]Man(b1-4)GlcNAc(b1-4)[Fuc(a1-6)]GlcNAc
# Method in brief: as §1
# [3] = biological target: Gal(b1-4)GlcNAc(b1-3)Gal(b1-4)GlcNAc(b1-3)Gal(b1-4)GlcNAc(b1-3)Gal(b1-4)GlcNAc(b1-3)Gal(b1-4)GlcNAc(b1-2)Man(a1-3)[Gal(b1-4)GlcNAc(b1-3)Gal(b1-4)GlcNAc(b1-3)Gal(b1-4)GlcNAc(b1-3)Gal(b1-4)GlcNAc(b1-3)Gal(b1-4)GlcNAc(b1-2)Man(a1-6)]Man(b1-4)GlcNAc(b1-4)GlcNAc
# Method in brief: as §1
# [4] = biological target: Gal(b1-4)GlcNAc(b1-3)Gal(b1-4)GlcNAc(b1-3)Gal(b1-4)GlcNAc(b1-3)Gal(b1-4)GlcNAc(b1-3)Gal(b1-4)GlcNAc(b1-2)Man(a1-3)[Gal(b1-4)GlcNAc(b1-3)Gal(b1-4)GlcNAc(b1-3)Gal(b1-4)GlcNAc(b1-3)Gal(b1-4)GlcNAc(b1-3)Gal(b1-4)GlcNAc(b1-2)Man(a1-6)]Man(b1-4)GlcNAc(b1-4)[Fuc(a1-6)]GlcNAc
# Method in brief: as §1
# [5] = biological target: Gal(b1-4)GlcNAc(b1-3)Gal(b1-4)GlcNAc(b1-3)Gal(b1-4)GlcNAc(b1-3)Gal(b1-4)GlcNAc(b1-3)Gal(b1-4)GlcNAc(b1-2)[Gal(b1-4)GlcNAc(b1-3)Gal(b1-4)GlcNAc(b1-3)Gal(b1-4)GlcNAc(b1-3)Gal(b1-4)GlcNAc(b1-3)Gal(b1-4)GlcNAc(b1-6)]Man(a1-6)[Gal(b1-4)GlcNAc(b1-3)Gal(b1-4)GlcNAc(b1-3)Gal(b1-4)GlcNAc(b1-3)Gal(b1-4)GlcNAc(b1-3)Gal(b1-4)GlcNAc(b1-2)Man(a1-3)]Man(b1-4)GlcNAc(b1-4)[Fuc(a1-6)]GlcNAc
# Method in brief: as §1
# [6] = biological target: Gal(b1-4)GlcNAc(b1-3)Gal(b1-4)GlcNAc(b1-3)Gal(b1-4)GlcNAc(b1-3)Gal(b1-4)GlcNAc(b1-3)Gal(b1-4)GlcNAc(b1-3)Gal(b1-4)GlcNAc(b1-2)Man(a1-3)[Gal(b1-4)GlcNAc(b1-3)Gal(b1-4)GlcNAc(b1-3)Gal(b1-4)GlcNAc(b1-3)Gal(b1-4)GlcNAc(b1-3)Gal(b1-4)GlcNAc(b1-3)Gal(b1-4)GlcNAc(b1-2)Man(a1-6)]Man(b1-4)GlcNAc(b1-4)GlcNAc
# Method in brief: as §1
# [7] = biological target: Gal(b1-4)GlcNAc(b1-3)Gal(b1-4)GlcNAc(b1-3)GalNAc
# Method in brief: as §1
# [8] = biological target: Gal(b1-4)GlcNAc(b1-3)Gal(b1-4)GlcNAc(b1-3)[Gal(b1-4)GlcNAc(b1-3)Gal(b1-4)GlcNAc(b1-6)]GalNAc
# Method in brief: as §1
# [9] = biological target: Gal(b1-4)GlcNAc(b1-3)Gal(b1-4)GlcNAc(b1-6)[Gal(b1-3)]GalNAc
# Method in brief: as §1
# [10] = biological target: Gal(b1-4)GlcNAc(b1-3)Gal(b1-4)[Fuc(a1-3)]GlcNAc(b1-3)Gal(b1-4)[Fuc(a1-3)]GlcNAc
# Method in brief: as §1
# [11] = biological target: Gal(b1-4)GlcNAc(b1-3)GalNAc
# Method in brief: as §1
# [12] = biological target: Gal(b1-4)GlcNAc(b1-3)[Fuc(a1-3)GlcNAc(b1-6)]Gal(b1-4)Glc
# Method in brief: as §1
# [13] = biological target: Gal(b1-4)GlcNAc(b1-3)[Gal(b1-4)GlcNAc(b1-6)]Gal(b1-4)GlcNAc
# Method in brief: as §1
# [14] = biological target: Gal(b1-4)GlcNAc(b1-3)[GlcNAc(b1-6)]Gal(b1-4)GlcNAc
# Method in brief: as §1
# [15] = biological target: Gal(b1-4)GlcNAc(b1-6)Gal(b1-4)GlcNAc
# Method in brief: as §1
# [16] = biological target: Gal(b1-4)GlcNAc(b1-6)GalNAc
# Method in brief: as §1
# [17] = biological target: Gal(b1-4)GlcNAc(b1-6)[Gal(b1-3)]GalNAc
# Method in brief: as §1
# [18] = biological target: Gal(b1-4)GlcNAc(b1-6)[Gal(b1-4)GlcNAc(b1-3)]GalNAc
# Method in brief: as §1
# Gal(b1-4)GlcNAc6P = biological target: Gal(b1-4)GlcNAc6P
# Method in brief: as §1
# Gal(b1-6)Gal = biological target: Gal(b1-6)Gal
# Method in brief: as §1
# Gal3S(b1-3)GalNAc = biological target: Gal3S(b1-3)GalNAc
# Method in brief: as §1
# Gal3S(b1-3)GlcNAc = biological target: Gal3S(b1-3)GlcNAc
# Method in brief: as §1
# [19] = biological target: Gal3S(b1-3)[Fuc(a1-4)]GlcNAc
# Method in brief: as §1
# Gal3S(b1-4)Glc = biological target: Gal3S(b1-4)Glc
# Method in brief: as §1
# Gal3S(b1-4)Glc6S = biological target: Gal3S(b1-4)Glc6S
# Method in brief: as §1
# Gal3S(b1-4)GlcNAc = biological target: Gal3S(b1-4)GlcNAc
# Method in brief: as §1
# [20] = biological target: Gal3S(b1-4)[Fuc(a1-3)]Glc6S
# Method in brief: as §1
# [21] = biological target: Gal3S(b1-4)[Fuc(a1-3)]GlcNAc
# Method in brief: as §1
# [22] = biological target: Gal3S(b1-4)[Fuc(a1-3)]GlcNAc6S
# Method in brief: as §1
# Gal3S4S(b1-4)GlcNAc = biological target: Gal3S4S(b1-4)GlcNAc
# Method in brief: as §1
# Gal3S6S(b1-4)GlcNAc = biological target: Gal3S6S(b1-4)GlcNAc
# Method in brief: as §1
# Gal3S6S(b1-4)GlcNAc6S = biological target: Gal3S6S(b1-4)GlcNAc6S
# Method in brief: as §1
# Gal4S(b1-4)GlcNAc = biological target: Gal4S(b1-4)GlcNAc
# Method in brief: as §1
# Gal4S6S(b1-4)GlcNAc = biological target: Gal4S6S(b1-4)GlcNAc
# Method in brief: as §1
# Gal6P(b1-4)GlcNAc = biological target: Gal6P(b1-4)GlcNAc
# Method in brief: as §1
# Gal6S(b1-3)GlcNAc = biological target: Gal6S(b1-3)GlcNAc
# Method in brief: as §1
# Gal6S(b1-3)GlcNAc6S = biological target: Gal6S(b1-3)GlcNAc6S
# Method in brief: as §1
# Gal6S(b1-4)Glc = biological target: Gal6S(b1-4)Glc
# Method in brief: as §1
binder,measurement,setting,value
B1,glycan array binding signal (z-score),[1],0.006
same,glycan array binding signal (z-score),[2],-0.079
same,glycan array binding signal (z-score),[3],-0.037
same,glycan array binding signal (z-score),[4],-0.226
same,glycan array binding signal (z-score),[5],0.054
same,glycan array binding signal (z-score),[6],-0.26
same,glycan array binding signal (z-score),[7],0.131
same,glycan array binding signal (z-score),[8],0.394
same,glycan array binding signal (z-score),[9],0.298
same,glycan array binding signal (z-score),[10],-0.02
same,glycan array binding signal (z-score),[11],-0.314
same,glycan array binding signal (z-score),[12],-0.181
same,glycan array binding signal (z-score),[13],0.057
same,glycan array binding signal (z-score),[14],-0.143
same,glycan array binding signal (z-score),[15],-0.277
same,glycan array binding signal (z-score),[16],-0.162
same,glycan array binding signal (z-score),[17],0.002
same,glycan array binding signal (z-score),[18],0.086
same,glycan array binding signal (z-score),Gal(b1-4)GlcNAc6P,0.565
same,glycan array binding signal (z-score),Gal(b1-6)Gal,1.22
same,glycan array binding signal (z-score),Gal3S(b1-3)GalNAc,-0.286
same,glycan array binding signal (z-score),Gal3S(b1-3)GlcNAc,-0.35
same,glycan array binding signal (z-score),[19],0.4
same,glycan array binding signal (z-score),Gal3S(b1-4)Glc,-0.425
same,glycan array binding signal (z-score),Gal3S(b1-4)Glc6S,-0.348
same,glycan array binding signal (z-score),Gal3S(b1-4)GlcNAc,-0.428
same,glycan array binding signal (z-score),[20],0.482
same,glycan array binding signal (z-score),[21],-0.06
same,glycan array binding signal (z-score),[22],0.237
same,glycan array binding signal (z-score),Gal3S4S(b1-4)GlcNAc,-0.365
same,glycan array binding signal (z-score),Gal3S6S(b1-4)GlcNAc,-0.104
same,glycan array binding signal (z-score),Gal3S6S(b1-4)GlcNAc6S,1.36
same,glycan array binding signal (z-score),Gal4S(b1-4)GlcNAc,-0.105
same,glycan array binding signal (z-score),Gal4S6S(b1-4)GlcNAc,-0.32
same,glycan array binding signal (z-score),Gal6P(b1-4)GlcNAc,-0.368
same,glycan array binding signal (z-score),Gal6S(b1-3)GlcNAc,-0.149
same,glycan array binding signal (z-score),Gal6S(b1-3)GlcNAc6S,0.743
same,glycan array binding signal (z-score),Gal6S(b1-4)Glc,-0.014
